{
  "source": "the supplement of paper PMC8728848",
  "binders": {"B1": {"name": "Cohesin-hDC-ASGPR (Homo sapiens) (protein)", "chain": "LDDLDAVRIKVDTVNAKPGDTVRIPVRFSGIPSKGIANCDFVYSYDPNVLEIIEIEPGDIIVDPNPDKSFDTAVYPDRKIIVFLFAEDSGTGAYAITKDGVFATIVAKVKEGAPNGLSVIKFVEVGGFANNDLVEQKTQFFDGGANVGDTTEPATPTTPVTTPTTTDDLDAASQNSKFQRDLVTLRTDFSNFTSNTVAEIQALTSQGSSLEETIASLKAEVEGFKQERQAGVSELQEHTTQKAHLGHCPHCPSVCVPVHSEMLLRVQQLVQDLKKLTCQVATLNNNASTEGTCCPVNWVEHQDSCYWFSHSGMSWAEAEKYCQLKNAHLVVINSREEQNFVQKYLGSAYTWMGLSDPEGAWKWVDGTDYATGFQNWKPGQPDDWQGHGLGGGEDCAHFHPDGRWNDDVCQRPYHWVCEAGLGQTSQESHHHHHH"}},
  "test_in_all_cases": "glycan array binding signal (z-score within array); higher = stronger binding",
  "settings_in_all_cases": "glycan notation: IUPAC condensed, linker removed",
  "key": {"[1]": {"molecular_target": "Neu5Ac(a2-3)Gal(b1-3)[Fuc(a1-4)]GlcNAc", "outline": "(§1)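 Columns mapping to the same glycan were averaged after glycan names were converted to IUPAC-condensed notation. The data come from 3228 arrays in the Consortium for Functional Glycomics database, limited to those with an available protein sequence. Binding is reported as a within-array Z-score averaged across arrays of one protein sequence and across linkers.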"}, "[2]": {"molecular_target": "Neu5Ac(a2-3)Gal(b1-3)[Fuc(a1-4)]GlcNAc(b1-3)Gal(b1-3)[Fuc(a1-4)]GlcNAc", "outline": "as §1"}, "[3]": {"molecular_target": "Neu5Ac(a2-3)Gal(b1-3)[Fuc(a1-4)]GlcNAc(b1-3)Gal(b1-4)[Fuc(a1-3)]GlcNAc", "outline": "as §1"}, "[4]": {"molecular_target": "Neu5Ac(a2-3)Gal(b1-3)[GlcNAc(b1-6)]GalNAc", "outline": "as §1"}, "[5]": {"molecular_target": "Neu5Ac(a2-3)Gal(b1-3)[Neu5Ac(a2-6)]GalNAc", "outline": "as §1"}, "[6]": {"molecular_target": "Neu5Ac(a2-3)Gal(b1-3)[Neu5Ac(a2-6)]GlcNAc(b1-3)[Fuc(a1-3)[Gal(b1-4)]GlcNAc(b1-6)]Gal(b1-4)Glc", "outline": "as §1"}, "[7]": {"molecular_target": "Neu5Ac(a2-3)Gal(b1-3)]Neu5Ac(a2-3)Gal(b1-4)]GlcNAc", "outline": "as §1"}, "Neu5Ac(a2-3)Gal(b1-4)Glc": {"molecular_target": "Neu5Ac(a2-3)Gal(b1-4)Glc", "outline": "as §1"}, "[8]": {"molecular_target": "Neu5Ac(a2-3)Gal(b1-4)GlcNAc", "outline": "as §1"}, "[9]": {"molecular_target": "Neu5Ac(a2-3)Gal(b1-4)GlcNAc(b1-2)Man", "outline": "as §1"}, "[10]": {"molecular_target": "Neu5Ac(a2-3)Gal(b1-4)GlcNAc(b1-2)Man(a1-3)[GlcNAc(b1-4)][Neu5Ac(a2-3)Gal(b1-4)GlcNAc(b1-2)Man(a1-6)]Man(b1-4)GlcNAc(b1-4)GlcNAc", "outline": "as §1"}, "[11]": {"molecular_target": "Neu5Ac(a2-3)Gal(b1-4)GlcNAc(b1-2)Man(a1-3)[Neu5Ac(a2-3)Gal(b1-4)GlcNAc(b1-2)Man(a1-6)]Man(b1-4)GlcNAc(b1-4)GlcNAc", "outline": "as §1"}, "[12]": {"molecular_target": "Neu5Ac(a2-3)Gal(b1-4)GlcNAc(b1-2)Man(a1-3)[Neu5Ac(a2-3)Gal(b1-4)GlcNAc(b1-2)Man(a1-6)]Man(b1-4)GlcNAc(b1-4)[Fuc(a1-6)]GlcNAc", "outline": "as §1"}, "[13]": {"molecular_target": "Neu5Ac(a2-3)Gal(b1-4)GlcNAc(b1-2)Man(a1-3)[Neu5Ac(a2-6)Gal(b1-4)GlcNAc(b1-2)Man(a1-6)]Man(b1-4)GlcNAc(b1-4)GlcNAc", "outline": "as §1"}, "[14]": {"molecular_target": "Neu5Ac(a2-3)Gal(b1-4)GlcNAc(b1-2)[Neu5Ac(a2-3)Gal(b1-4)GlcNAc(b1-4)]Man(a1-3)[GlcNAc(b1-4)][Neu5Ac(a2-3)Gal(b1-4)GlcNAc(b1-2)[Neu5Ac(a2-3)Gal(b1-4)GlcNAc(b1-6)]Man(a1-6)]Man(b1-4)GlcNAc(b1-4)GlcNAc", "outline": "as §1"}, "[15]": {"molecular_target": "Neu5Ac(a2-3)Gal(b1-4)GlcNAc(b1-2)[Neu5Ac(a2-3)Gal(b1-4)GlcNAc(b1-4)]Man(a1-3)[GlcNAc(b1-4)][Neu5Ac(a2-3)Gal(b1-4)GlcNAc(b1-4)Man(a1-6)]Man(b1-4)GlcNAc(b1-4)GlcNAc", "outline": "as §1"}, "[16]": {"molecular_target": "Neu5Ac(a2-3)Gal(b1-4)GlcNAc(b1-2)[Neu5Ac(a2-3)Gal(b1-4)GlcNAc(b1-6)]Man(a1-6)[Neu5Ac(a2-3)Gal(b1-4)GlcNAc(b1-2)Man(a1-3)]Man(b1-4)GlcNAc(b1-4)GlcNAc", "outline": "as §1"}, "[17]": {"molecular_target": "Neu5Ac(a2-3)Gal(b1-4)GlcNAc(b1-2)[Neu5Ac(a2-3)Gal(b1-4)GlcNAc(b1-6)]Man(a1-6)[Neu5Ac(a2-3)Gal(b1-4)GlcNAc(b1-2)Man(a1-3)][GlcNAc(b1-4)]Man(b1-4)GlcNAc(b1-4)GlcNAc", "outline": "as §1"}, "[18]": {"molecular_target": "Neu5Ac(a2-3)Gal(b1-4)GlcNAc(b1-3)Gal", "outline": "as §1"}, "[19]": {"molecular_target": "Neu5Ac(a2-3)Gal(b1-4)GlcNAc(b1-3)Gal(b1-3)GlcNAc", "outline": "as §1"}, "[20]": {"molecular_target": "Neu5Ac(a2-3)Gal(b1-4)GlcNAc(b1-3)Gal(b1-4)GlcNAc", "outline": "as §1"}, "[21]": {"molecular_target": "Neu5Ac(a2-3)Gal(b1-4)GlcNAc(b1-3)Gal(b1-4)GlcNAc(b1-2)Man(a1-3)[Neu5Ac(a2-3)Gal(b1-4)GlcNAc(b1-3)Gal(b1-4)GlcNAc(b1-2)Man(a1-6)]Man(b1-4)GlcNAc(b1-4)GlcNAc", "outline": "as §1"}, "[22]": {"molecular_target": "Neu5Ac(a2-3)Gal(b1-4)GlcNAc(b1-3)Gal(b1-4)GlcNAc(b1-3)Gal(b1-4)GlcNAc", "outline": "as §1"}, "[23]": {"molecular_target": "Neu5Ac(a2-3)Gal(b1-4)GlcNAc(b1-3)Gal(b1-4)GlcNAc(b1-3)Gal(b1-4)GlcNAc(b1-2)Man(a1-3)[Neu5Ac(a2-3)Gal(b1-4)GlcNAc(b1-3)Gal(b1-4)GlcNAc(b1-3)Gal(b1-4)GlcNAc(b1-2)Man(a1-6)]GalNAc", "outline": "as §1"}, "[24]": {"molecular_target": "Neu5Ac(a2-3)Gal(b1-4)GlcNAc(b1-3)Gal(b1-4)GlcNAc(b1-3)GalNAc", "outline": "as §1"}, "[25]": {"molecular_target": "Neu5Ac(a2-3)Gal(b1-4)GlcNAc(b1-3)Gal(b1-4)GlcNAc(b1-3)[Neu5Ac(a2-3)Gal(b1-4)GlcNAc(b1-3)Gal(b1-4)GlcNAc(b1-6)]GalNAc", "outline": "as §1"}, "[26]": {"molecular_target": "Neu5Ac(a2-3)Gal(b1-4)GlcNAc(b1-3)Gal(b1-4)GlcNAc(b1-6)[Gal(b1-3)]GalNAc", "outline": "as §1"}, "[27]": {"molecular_target": "Neu5Ac(a2-3)Gal(b1-4)GlcNAc(b1-3)Gal(b1-4)[Fuc(a1-3)]GlcNAc", "outline": "as §1"}, "[28]": {"molecular_target": "Neu5Ac(a2-3)Gal(b1-4)GlcNAc(b1-3)GalNAc", "outline": "as §1"}, "[29]": {"molecular_target": "Neu5Ac(a2-3)Gal(b1-4)GlcNAc(b1-3)[Neu5Ac(a2-3)Gal(b1-4)GlcNAc(b1-6)]GalNAc", "outline": "as §1"}},
  "note": "The other results are listed elsewhere or left out.",
  "data": [
    {"binder": "B1", "values": [
      {"measurement": "glycan array binding signal (z-score)", "setting": "[1]", "value": -0.462},
      {"measurement": "glycan array binding signal (z-score)", "setting": "[2]", "value": 0.384},
      {"measurement": "glycan array binding signal (z-score)", "setting": "[3]", "value": -0.098},
      {"measurement": "glycan array binding signal (z-score)", "setting": "[4]", "value": -0.493},
      {"measurement": "glycan array binding signal (z-score)", "setting": "[5]", "value": 0.82},
      {"measurement": "glycan array binding signal (z-score)", "setting": "[6]", "value": -0.427},
      {"measurement": "glycan array binding signal (z-score)", "setting": "[7]", "value": -0.475},
      {"measurement": "glycan array binding signal (z-score)", "setting": "Neu5Ac(a2-3)Gal(b1-4)Glc", "value": -0.471},
      {"measurement": "glycan array binding signal (z-score)", "setting": "[8]", "value": -0.453},
      {"measurement": "glycan array binding signal (z-score)", "setting": "[9]", "value": 0.681},
      {"measurement": "glycan array binding signal (z-score)", "setting": "[10]", "value": -0.509},
      {"measurement": "glycan array binding signal (z-score)", "setting": "[11]", "value": -0.375},
      {"measurement": "glycan array binding signal (z-score)", "setting": "[12]", "value": -0.509},
      {"measurement": "glycan array binding signal (z-score)", "setting": "[13]", "value": -0.509},
      {"measurement": "glycan array binding signal (z-score)", "setting": "[14]", "value": -0.496},
      {"measurement": "glycan array binding signal (z-score)", "setting": "[15]", "value": -0.496},
      {"measurement": "glycan array binding signal (z-score)", "setting": "[16]", "value": -0.099},
      {"measurement": "glycan array binding signal (z-score)", "setting": "[17]", "value": -0.507},
      {"measurement": "glycan array binding signal (z-score)", "setting": "[18]", "value": -0.514},
      {"measurement": "glycan array binding signal (z-score)", "setting": "[19]", "value": -0.505},
      {"measurement": "glycan array binding signal (z-score)", "setting": "[20]", "value": -0.512},
      {"measurement": "glycan array binding signal (z-score)", "setting": "[21]", "value": -0.194},
      {"measurement": "glycan array binding signal (z-score)", "setting": "[22]", "value": -0.498},
      {"measurement": "glycan array binding signal (z-score)", "setting": "[23]", "value": 0.562},
      {"measurement": "glycan array binding signal (z-score)", "setting": "[24]", "value": -0.332},
      {"measurement": "glycan array binding signal (z-score)", "setting": "[25]", "value": -0.339},
      {"measurement": "glycan array binding signal (z-score)", "setting": "[26]", "value": -0.454},
      {"measurement": "glycan array binding signal (z-score)", "setting": "[27]", "value": -0.512},
      {"measurement": "glycan array binding signal (z-score)", "setting": "[28]", "value": -0.312},
      {"measurement": "glycan array binding signal (z-score)", "setting": "[29]", "value": -0.495}
    ]}
  ]
}
